Assay results reported in US9901592B2 (priority 2008, dated 2018).

Assays:
Format in all cases: cell-based
[1] = tested on: S. pneumoniae
[2] = tested on: H. influenzae; details: H. influenzae 49247 Ery-S
[3] = tested on: S. aureus
[4] = S. aureus 96:11480 Ery-R (MLSb)

SMILES	MIC ([1]; S. pneumoniae 163 Ery-R (MefA))	MIC ([1]; S. pneumoniae 303 Ery-R (ermB))	MIC [2] [µg/mL]	MIC [3, 4]	MIC ([3]; S. aureus 29213 Ery-S)	MIC ([3]; S. aureus 25923 Ery-S)
CCC1OC(=O)C(C)C(=O)C(C)C(OC2OC(C)CC(N(C)C)C2O)C(C)(OC)CC(C)C(=O)C(C)C2N(CCCCn3cc(Cn4nnc5ccccc54)nn3)C(=O)OC12C (stereo not drawn) [Entry 18b]	4 µg/mL (≈ 4.61 µM)	64 μg/mL and >64 64 64 μg/mL	32 (≈ 36.9 µM)	2 µg/mL (≈ 2.31 µM)	1 µg/mL (≈ 1.15 µM)	–
CCC1OC(=O)C(C)C(=O)C(C)C(OC2OC(C)CC(N(C)C)C2O)C(C)(OC)CC(C)C(=O)C(C)C2N(CCCCn3cc(COc4c(Cl)cccc4Cl)nn3)C(=O)OC12C (stereo not drawn) [Entry 17b]	–	1 µg/mL (≈ 1.1 µM)	16 (≈ 17.6 µM)	≤ 0.125 µg/mL	≤ 0.125 µg/mL	–
CCC1OC(=O)C(C)C(=O)C(C)C(OC2OC(C)CC(N(C)C)C2O)C(C)(OC)CC(C)C(=O)C(C)C2N(CCCCn3cc(-c4cccc(N)c4)nn3)C(=O)OC12C (stereo not drawn) [Entry 16b]	–	≤ 0.125 µg/mL	2 (≈ 2.42 µM)	–	–	–
CCC1OC(=O)C(C)C(=O)C(C)C(OC2OC(C)CC(N(C)C)C2O)C(C)(OC)CC(C)C(=O)C(C)C2N(CCCCn3cc(-c4cccnc4)nn3)C(=O)OC12C (stereo not drawn) [Entry 15b]	2 µg/mL (≈ 2.46 µM)	64 µg/mL (≈ 78.7 µM)	64 (≈ 78.7 µM)	4 µg/mL (≈ 4.92 µM)	–	–
CCC1OC(=O)C(C)C(=O)C(C)C(OC2OC(C)CC(N(C)C)C2O)C(C)(OC)CC(C)C(=O)C(C)C2N(CCCCCn3cc(-c4cccc(N)c4)nn3)C(=O)OC12C (stereo not drawn) [Entry 16c]	–	0.25 µg/mL (≈ 0.297 µM)	8 (≈ 9.51 µM)	–	–	–
CC[C@H]1OC(=O)[C@@](C)(F)C(=O)[C@H](C)[C@@H](OC2OC(C)CC(N(C)C)C2O)[C@@](C)(OC)C[C@@H](C)C(=O)[C@H](C)[C@H]2N(CCCCn3cc(-c4ccccn4)nn3)C(=O)O[C@]12C (stereo partly drawn) [Entry 23a]	≦0.125 μg/mL	≦0.125 μg/mL	2 (≈ 2.41 µM)	≦0.125 μg/mL	≦0.125 μg/mL	–
CCC1OC(=O)C(C)C(=O)C(C)C(OC2OC(C)CC(N(C)C)C2O)C(C)(OC)CC(C)C(=O)C(C)C2N(CCCCCn3cc(-c4cccnc4)nn3)C(=O)OC12C (stereo not drawn) [Entry 15c]	0.25 µg/mL (≈ 0.302 µM)	4 µg/mL (≈ 4.84 µM)	16 (≈ 19.3 µM)	0.25 µg/mL (≈ 0.302 µM)	–	–
CCC1OC(=O)C(C)C(=O)C(C)C(OC2OC(C)CC(N(C)C)C2O)C(C)(OC)CC(C)C(=O)C(C)C2N(CCCCCn3cc(Cn4nnc5ccccc54)nn3)C(=O)OC12C (stereo not drawn) [Entry 18c]	≤ 0.125 µg/mL	–	8 (≈ 9.08 µM)	≤ 0.125 µg/mL	≤ 0.125 µg/mL	–
CCC1OC(=O)C(C)C(=O)C(C)C(OC2OC(C)CC(N(C)C)C2O)C(C)(OC)CC(C)C(=O)C(C)C2N(CCCCCn3cc(-c4ccc(Br)cc4)nn3)C(=O)OC12C (stereo not drawn) [Entry 12c]	–	1 µg/mL (≈ 1.11 µM)	16 (≈ 17.7 µM)	–	–	–
CCC1OC(=O)C(C)C(=O)C(C)C(OC2OC(C)CC(N(C)C)C2O)C(C)(OC)CC(C)C(=O)C(C)C2N(CCCn3cc(-c4ccccc4)nn3)C(=O)OC12C (stereo not drawn) [Entry 11a]	–	–	> 64	1 µg/mL (≈ 1.25 µM)	1 µg/mL (≈ 1.25 µM)	–
CCC1OC(=O)C(C)C(=O)C(C)C(OC2OC(C)CC(N(C)C)C2O)C(C)(OC)CC(C)C(=O)C(C)C2N(CCCCn3cc(-c4ccc(Br)cc4)nn3)C(=O)OC12C (stereo not drawn) [Entry 12b]	–	8 µg/mL (≈ 8.98 µM)	8 (≈ 8.98 µM)	–	–	–
CCC1OC(=O)C(C)C(=O)C(C)C(OC2OC(C)CC(N(C)C)C2O)C(C)(OC)CC(C)C(=O)C(C)C2N(CCCCCn3cc(-c4ccc(C(F)(F)F)cc4)nn3)C(=O)OC12C (stereo not drawn) [Entry 13c]	0.5 µg/mL (≈ 0.559 µM)	2 µg/mL (≈ 2.24 µM)	64 (≈ 71.6 µM)	1 µg/mL (≈ 1.12 µM)	0.5 µg/mL (≈ 0.559 µM)	–
CCC1OC(=O)C(C)C(=O)C(C)C(OC2OC(C)CC(N(C)C)C2O)C(C)(OC)CC(C)C(=O)C(C)C2N(CCCn3cc(-c4ccccn4)nn3)C(=O)OC12C (stereo not drawn) [Entry 14a]	0.5 µg/mL (≈ 0.626 µM)	> 64 µg/mL	> 64	2 µg/mL (≈ 2.5 µM)	2 µg/mL (≈ 2.5 µM)	–
CCC1OC(=O)C(C)C(=O)C(C)C(OC2OC(C)CC(N(C)C)C2O)C(C)(OC)CC(C)C(=O)C(C)C2N(CCCn3cc(-c4ccc(C(F)(F)F)cc4)nn3)C(=O)OC12C (stereo not drawn) [Entry 13a]	–	16 µg/mL (≈ 18.5 µM)	> 64	2 µg/mL (≈ 2.31 µM)	1 µg/mL (≈ 1.15 µM)	–
CCC1OC(=O)C(C)C(=O)C(C)C(OC2OC(C)CC(N(C)C)C2O)C(C)(OC)CC(C)C(=O)C(C)C2N(CCCCCn3cc(COc4c(Cl)cccc4Cl)nn3)C(=O)OC12C (stereo not drawn) [Entry 17c]	–	2 µg/mL (≈ 2.16 µM)	32 (≈ 34.6 µM)	0.5 µg/mL (≈ 0.541 µM)	0.25 µg/mL (≈ 0.27 µM)	–
CCC1OC(=O)C(C)C(=O)C(C)C(OC2OC(C)CC(N(C)C)C2O)C(C)(OC)CC(C)C(=O)C(C)C2N(CCCn3cc(COc4c(Cl)cccc4Cl)nn3)C(=O)OC12C (stereo not drawn) [Entry 17a]	–	> 64 µg/mL	> 64	1 µg/mL (≈ 1.11 µM)	1 µg/mL (≈ 1.11 µM)	–
CCC1OC(=O)C(C)C(=O)C(C)C(OC2OC(C)CC(N(C)C)C2O)C(C)(OC)CC(C)C(=O)C(C)C2N(CCCCn3cc(-c4ccccn4)nn3)C(=O)OC12C (stereo not drawn) [Entry 14b]	–	≤ 0.125 µg/mL	4 (≈ 4.92 µM)	–	–	–
CC[C@H]1OC(=O)[C@H](C)[C@@H](OC2CC(C)(OC)C(O)C(C)O2)[C@H](C)[C@@H](OC2OC(C)CC(N(C)C)C2O)[C@@](C)(OC)C[C@@H](C)C(=O)[C@H](C)[C@H]2N(CCCCn3cc(-c4cccc(N)c4)nn3)C(=O)O[C@]12C (stereo partly drawn) [Entry 20c]	0.5 µg/mL (≈ 0.506 µM)	2 µg/mL (≈ 2.03 µM)	–	–	–	1 µg/mL (≈ 1.01 µM)
CCC1OC(=O)C(C)C(=O)C(C)C(OC2OC(C)CC(N(C)C)C2O)C(C)(OC)CC(C)C(=O)C(C)C2N(CCCCCn3cc(-c4ccccn4)nn3)C(=O)OC12C (stereo not drawn) [Entry 14c]	–	0.25 µg/mL (≈ 0.302 µM)	64 (≈ 77.4 µM)	–	–	–
CC[C@H]1OC(=O)[C@H](C)[C@@H](OC2CC(C)(OC)C(O)C(C)O2)[C@H](C)[C@@H](OC2OC(C)CC(N(C)C)C2O)[C@@](C)(OC)C[C@@H](C)C(=O)[C@H](C)[C@H]2N(CCCCn3cc(-c4ccccn4)nn3)C(=O)O[C@]12C (stereo partly drawn) [Entry 20a]	0.125 µg/mL (≈ 0.128 µM)	2 µg/mL (≈ 2.06 µM)	–	–	–	0.25 µg/mL (≈ 0.257 µM)
CC[C@H]1OC(=O)[C@H](C)[C@@H](OC2CC(C)(OC)C(O)C(C)O2)[C@H](C)[C@@H](OC2OC(C)CC(N(C)C)C2O)[C@@](C)(OC)C[C@@H](C)C(=O)[C@H](C)[C@H]2N(CCCCn3cc(COc4c(Cl)cccc4Cl)nn3)C(=O)O[C@]12C (stereo partly drawn) [Entry 20d]	0.5 µg/mL (≈ 0.467 µM)	2 µg/mL (≈ 1.87 µM)	–	–	–	1 µg/mL (≈ 0.934 µM)
CC[C@H]1OC(=O)[C@H](C)[C@@H](OC2CC(C)(OC)C(O)C(C)O2)[C@H](C)[C@@H](OC2OC(C)CC(N(C)C)C2O)[C@@](C)(OC)C[C@@H](C)C(=O)[C@H](C)[C@H]2N(CCCCn3cc(-c4cccnc4)nn3)C(=O)O[C@]12C (stereo partly drawn) [Entry 20b]	≦0.06 μg/mL	1 µg/mL (≈ 1.03 µM)	–	–	–	0.25 µg/mL (≈ 0.257 µM)
CC[C@H]1OC(=O)[C@H](C)[C@@H](OC2CC(C)(OC)C(O)C(C)O2)[C@H](C)[C@@H](OC2OC(C)CC(N(C)C)C2O)[C@@](C)(OC)C[C@@H](C)C(=O)[C@H](C)[C@H]2N(CCCCn3cc(Cn4nnc5ccccc54)nn3)C(=O)O[C@]12C (stereo partly drawn) [Entry 20e]	0.5 µg/mL (≈ 0.487 µM)	2 µg/mL (≈ 1.95 µM)	–	–	–	≦0.25 μg/mL

≈ marks a conversion by molar mass, not a printed value. Where “and” joins values, the source holds several entries; their conditions need not be identical. Equal values may be shown once. Read-outs that look alike come from different tables or passages of the source.
